# Experimental data reported in the supplement of paper PMC7826260.
# This is one part of the list. The data describe in vitro nicking of single-stranded DNA by Rep domains (1 h at 37 °C, 3 µM enzyme); the outer parts of the 90-letter strands are left off. Uncut reads are compared with the no-enzyme pool on a log2 scale; the lower, the more was cut; hits are not called. The scaling is to total reads, so uncut sequences can rise above 0 when many others are cut.
# Tests used:
# Assay in all cases: uncleaved DNA left, log2 of reads against the no-enzyme library (log2 ratio); higher = less cleavage (more negative = more Rep cleavage of the k-mer); sequences stand for … in CTCGTCCG…ACCGGAGA
# [1] = tested on: T1, Rep nickase domain of Muscovy duck circovirus
# T1 sequence (residues 1-111, tag not shown): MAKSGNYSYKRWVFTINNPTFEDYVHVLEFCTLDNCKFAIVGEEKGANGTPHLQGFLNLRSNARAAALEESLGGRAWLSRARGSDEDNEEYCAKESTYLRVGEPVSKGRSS
# Method: (§1)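 A pool of 90-nt single-stranded DNAs with seven random bases just before the constant AC of the nick site (name = the seven bases) was cut by 3 µM recombinant His6-SUMO-tagged Rep nickase domain (300 nM DNA, 50 mM HEPES pH 8.0, 50 mM NaCl, 1 mM MnCl2, 1 h, 37 °C, three replicates). Uncut DNA was amplified and sequenced.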
# [2] = tested on: T2, Rep nickase domain of banana bunchy top virus
# T2 sequence (residues 1-94, tag not shown): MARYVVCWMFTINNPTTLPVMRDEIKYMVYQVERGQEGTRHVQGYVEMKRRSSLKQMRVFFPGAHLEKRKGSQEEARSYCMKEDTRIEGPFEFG
# Method: as §1
# [3] = tested on: T3, Rep nickase domain of cabbage leaf curl virus
# T3 sequence (residues 1-116, tag not shown): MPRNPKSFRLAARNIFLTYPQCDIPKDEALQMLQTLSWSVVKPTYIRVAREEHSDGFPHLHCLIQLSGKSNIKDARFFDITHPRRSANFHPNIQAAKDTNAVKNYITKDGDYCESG
# Method: as §1
# [4] = tested on: T4, Rep nickase domain of chickpea chlorotic dwarf virus
# T4 sequence (residues 1-124, tag not shown): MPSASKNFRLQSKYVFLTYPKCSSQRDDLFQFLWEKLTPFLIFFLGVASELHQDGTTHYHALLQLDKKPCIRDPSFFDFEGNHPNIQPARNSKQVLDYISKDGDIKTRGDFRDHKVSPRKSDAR
# Method: as §1
# [5] = tested on: T5, Rep nickase domain of faba bean necrotic yellows virus
# T5 sequence (residues 1-98, tag not shown): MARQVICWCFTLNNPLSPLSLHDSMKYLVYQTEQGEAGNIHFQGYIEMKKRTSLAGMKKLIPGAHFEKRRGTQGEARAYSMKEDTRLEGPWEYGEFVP
# Method: as §1
# [6] = tested on: T6, Rep nickase domain of maize striate mosaic virus
# T6 sequence (residues 1-117, tag not shown): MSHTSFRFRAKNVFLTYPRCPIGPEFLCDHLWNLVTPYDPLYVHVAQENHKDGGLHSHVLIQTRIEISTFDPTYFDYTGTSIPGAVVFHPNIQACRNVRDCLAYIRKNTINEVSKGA
# Method: as §1
# [7] = tested on: T7, Rep nickase domain of porcine circovirus 2
# T7 sequence (residues 2-116, tag not shown): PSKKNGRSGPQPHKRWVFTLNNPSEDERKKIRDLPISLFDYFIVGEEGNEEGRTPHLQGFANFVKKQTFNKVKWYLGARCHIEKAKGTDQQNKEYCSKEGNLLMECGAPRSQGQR
# Method: as §1
# [8] = tested on: T8, Rep nickase domain of tomato golden mosaic virus
# T8 sequence (residues 1-124, tag not shown): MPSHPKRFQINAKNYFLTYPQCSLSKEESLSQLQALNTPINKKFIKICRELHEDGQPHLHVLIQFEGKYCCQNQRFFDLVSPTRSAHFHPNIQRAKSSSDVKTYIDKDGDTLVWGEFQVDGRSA
# Method: as §1
# [9] = tested on: T9, Rep nickase domain of tomato yellow leaf curl virus
# T9 sequence (residues 1-136, tag not shown): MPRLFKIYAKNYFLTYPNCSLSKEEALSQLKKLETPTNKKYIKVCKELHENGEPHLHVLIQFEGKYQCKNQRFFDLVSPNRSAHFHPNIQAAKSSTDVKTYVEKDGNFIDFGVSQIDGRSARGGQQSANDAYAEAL
# Method: as §1
# [10] = tested on: T10, Rep nickase domain of wheat dwarf virus
# T10 sequence (residues 1-137, tag not shown): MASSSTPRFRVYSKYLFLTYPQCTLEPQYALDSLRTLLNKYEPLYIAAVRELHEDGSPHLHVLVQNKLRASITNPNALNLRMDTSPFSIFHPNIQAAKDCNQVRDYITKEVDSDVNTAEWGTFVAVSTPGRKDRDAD
# Method: as §1
Sequence,uncleaved DNA left (log2) [1],uncleaved DNA left (log2) [2],uncleaved DNA left (log2) [3],uncleaved DNA left (log2) [4],uncleaved DNA left (log2) [5],uncleaved DNA left (log2) [6],uncleaved DNA left (log2) [7],uncleaved DNA left (log2) [8],uncleaved DNA left (log2) [9],uncleaved DNA left (log2) [10]
GTACTAC,-0.333,0.0575,0.109,0.273,-0.116,1.64,-1.84,0.0389,0.105,0.102
ACCGGAG,-0.0971,-0.034,-0.23,0.43,-0.0477,0.0253,-0.0625,0.0465,0.0131,-0.15
GGCCTGC,0.0881,0.034,0.242,0.809,0.0935,1.38,0.129,0.0624,0.022,0.00398
GTTTTTA,0.00122,0.137,0.434,0.897,0.0828,1.85,0.111,0.253,0.125,0.128
GCGAGAG,-0.0456,0.0621,-0.0968,0.433,0.0211,-0.0602,0.155,0.0818,0.0275,0.153
ATCATGG,0.0857,0.00297,-0.362,-0.262,0.00315,-1.09,0.149,0.107,-0.0224,-0.0412
CCAATCT,-0.042,-0.0567,-0.438,-1.59,-0.0365,-0.346,-0.068,-0.0076,0.0392,-0.105
TACAACA,-0.131,-0.0304,-0.373,-2.66,0.0345,-0.556,-0.138,-0.00764,-0.012,-0.00035
TATCGAT,0.0326,-0.0328,-0.298,-1.23,0.0708,0.236,-0.489,-0.0696,-0.00785,0.0337
AAAATGC,-0.00188,0.00962,-0.685,-0.603,-0.0169,-1.28,0.057,0.0365,0.0615,-0.0494
ACAAACA,0.00162,0.0882,-0.168,-2.01,0.0261,-0.769,0.0773,0.129,-0.00643,0.0693
GCACTGG,-0.0215,0.033,-0.125,0.375,-0.171,-0.188,0.141,0.00382,-0.061,-0.0828
GGAAGCC,-0.000112,0.0825,0.52,1.13,-0.0141,1.44,0.162,-0.0681,0.0675,0.102
CGGCTGA,0.0453,0.0733,0.0314,0.674,0.00382,1.69,0.0663,0.111,0.0737,0.1
CAAGCGC,0.0634,0.038,-0.641,-0.384,0.0283,-0.866,0.154,0.0771,0.107,0.0385
GGCAGAT,0.0308,0.0135,0.659,1.63,-0.0296,1.98,0.174,-0.0257,0.0605,0.101

Sequence,uncleaved DNA left (log2) [1],uncleaved DNA left (log2) [2],uncleaved DNA left (log2) [3],uncleaved DNA left (log2) [4],uncleaved DNA left (log2) [5],uncleaved DNA left (log2) [6],uncleaved DNA left (log2) [7],uncleaved DNA left (log2) [8],uncleaved DNA left (log2) [9],uncleaved DNA left (log2) [10]
AAGCAAC,0.143,0.0631,0.0796,-0.751,0.117,-0.197,0.066,0.132,0.0827,0.102
ATCATGA,-0.0892,0.0144,-0.291,-0.254,-0.121,-1.02,0.0261,-0.145,-0.0699,-0.133
ATGGCAT,0.0418,0.0888,0.319,1.61,-0.012,1.74,0.241,0.179,-0.0296,0.0721
ATTTCCG,0.108,0.0233,-0.859,-0.121,0.0391,-0.966,0.287,-0.00285,-0.111,-0.0198
ACGATTA,0.0759,0.00279,-0.185,-1.15,0.134,-0.269,0.122,0.116,-0.0258,0.111
TTTTTAT,-1.72,-0.0813,0.252,-0.489,0.000183,-0.00491,-1.27,0.0196,0.0899,0.018
CCGATCA,-0.101,-0.0842,0.229,-0.0385,-0.141,0.19,-0.148,0.0742,-0.0403,-0.0458
CTACTTT,-0.11,-0.0226,-0.442,-2.71,0.0587,-0.517,-0.376,-0.0574,-0.0813,-0.219
GAGGGTC,0.0181,0.0822,0.499,0.731,-0.0404,1.66,0.134,0.0994,0.0676,0.0411
CACTATT,-3.77,-3.64,-3.39,-3.2,-2.66,-1.74,-4.63,-2.91,-0.0585,-1.62
CGCTATG,-0.00731,-0.061,-0.336,0.0456,-0.0459,-0.117,-0.0104,-0.0989,-0.126,-0.0971
GATGCGT,0.17,0.102,-0.624,0.0203,0.116,-0.635,0.138,0.0572,0.115,0.0384
GAACGGC,0.0587,0.0657,0.459,1.13,0.0549,1.49,0.122,0.115,0.0148,0.0709
TTATAAG,0.113,0.0295,-0.711,-0.317,0.108,-1.12,0.261,0.0581,0.0923,0.0481
ATCATTT,-0.0627,-0.173,-0.29,-2.66,-0.0469,-1.04,-0.262,0.0647,-0.098,-0.239
